# Variants at the background level are over-represented here.
# B1: tRNA (parent)
# chain: CUCUCGGUAGCCAAGUUGGUUUAAGGCGCAAGACUUUAAUUUAUCACUACGAAAUCUUGAGAUCGGGCGUUCGACUCGCCCCCGGGAGAUUUUUUCCUCGAGCAA
# Variants of: B1
# Assay: nonsense suppression (GFP-seq) (ratio to wild type); higher = more function; SUP4oc tRNA, yeast GFP reporter sort-seq
# Procedure, shortened: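 Raffinose/galactose medium with 80 mg/L adenine was used to grow yeast carrying genome-integrated tRNA variants (~3% random-mutation library), RFP, and a galactose-driven GFP ochre reporter. Cells went into GFP/RFP bins, which were Illumina-sequenced, and variants with ≥100 reads and ≥30 cells were scored. Nonsense suppression (GFPSEQ) is the per-bin median GFP/RFP weighted by estimated cell share and expressed relative to the unmutated parent tRNA.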
row,Variant,nonsense suppression
1,G6U A30G G67U G84U,≤ 0.026
2,G6U A74C,≤ 0.026
3,C5U G10U C12U A54G,≤ 0.026
4,G6U C11U G59A,≤ 0.026
5,G6U C80A,≤ 0.026
6,G6C U21C,≤ 0.026
7,G6C U21G,≤ 0.026
8,G6U G10U C75G,≤ 0.026
9,G6A A23G G25C U63C C80G,≤ 0.026
10,G6C U55G C68G,≤ 0.026
11,G6U G18C U76C A87U,≤ 0.026
12,G6C A89G,≤ 0.026
13,G6A A13G C56A,≤ 0.026
14,G6U U55C G61U,≤ 0.026
15,G6C G59C U70C C72U C79U,≤ 0.026
16,G6C A24U,≤ 0.026
17,C5U G10A U71G,≤ 0.026
18,G6A U16G G67U,≤ 0.026
19,C5U G28U G78U A89G,≤ 0.026
20,G6A G61U C80A,≤ 0.026
21,G6A U20G C34U A54U,≤ 0.026
22,C5U U16G G66C,≤ 0.026
23,G6U C11U A30U,≤ 0.026
24,G6A G15C A89G,≤ 0.026

row,Variant,nonsense suppression
1,G6U A31U G69U,≤ 0.026
2,G6U U16C A87U,≤ 0.026
3,G6U G67A G86C,≤ 0.026
4,C5U G18U G25C A89G,≤ 0.026
5,C5U U16A,≤ 0.026
6,G6C A23C,≤ 0.026
7,G6C A23U,≤ 0.026
8,G6U U58G U76C C80G,≤ 0.026
9,G6A A54G,≤ 0.026
10,G6U C34A G78C,≤ 0.026
11,C5U U21G C72A,≤ 0.026
12,G6U C56U,≤ 0.026
13,G6U C56A,≤ 0.026
14,G6U U17C,≤ 0.026
15,C5U G86C,≤ 0.026
16,G6U A74U G86C,≤ 0.026
17,G6C G69A C83U,≤ 0.026
18,G6A G66U C75U,≤ 0.026
19,G6A U63G C81U,≤ 0.026
20,G6C A14G G61U,≤ 0.026
21,G6A G10U,≤ 0.026
22,G6U U16C U17C G19U,≤ 0.026
23,G6A A14G,≤ 0.026
24,G6A A14C,≤ 0.026

row,Variant,nonsense suppression
1,C5U U8C G67C,≤ 0.026
2,G6A U17C A60U,≤ 0.026
3,C5U G7C,≤ 0.026
4,G6C C27A C83A,≤ 0.026
5,C5U G67A,≤ 0.026
6,G6C A9G G25C C27A A30G C34G,≤ 0.026
7,C5U U58C G84A,≤ 0.026
8,G6C A23C U55G C64A U70C G85U,≤ 0.026
9,C5U U20G A24G,≤ 0.026
10,C5U U20C A23C U63C A89G,≤ 0.026
11,G6C G18A C29U A62G,≤ 0.026
12,C5U U55G,≤ 0.026
13,G6A A24U,0.0308
14,G6A A24G,0.0293
15,G7A A13C U70C,≤ 0.026
16,G6A U76C,≤ 0.026
17,G6U G7U A74C,≤ 0.026
18,G6A A14G A23C U63A,≤ 0.026
19,G6C C11G U20A,≤ 0.026
20,G6C G26C U58A G73C U76C,≤ 0.026
21,C5U U16G U70G,≤ 0.026
22,C5U U76A,≤ 0.026
23,G6C G15C A33G,≤ 0.026
24,G6A C12G A13U,≤ 0.026

row,Variant,nonsense suppression
1,G6A G85C A89C,≤ 0.026
2,G6A A23U,≤ 0.026
3,G6C G32A,≤ 0.026
4,G6C G32U,≤ 0.026
5,G6U A30U,≤ 0.026
6,G6C A24C U57A C81U,≤ 0.026
7,G6A U58G G78C G84C,≤ 0.026
8,G6C G18C,≤ 0.026
9,G6C G18U,≤ 0.026
10,G6C A23C A31U U57A C80G,≤ 0.026
11,G6A C29G A62C C75U,≤ 0.026
12,G6A C29G A62C C75G,≤ 0.026
13,G6U C12G G25U A30G,≤ 0.026
14,C5U G67U C79G,≤ 0.026
15,G6A A74G,≤ 0.026
16,C5U G19A A33G G66A G84C,≤ 0.026
17,G6C U63A G69A A74G,≤ 0.026
18,G6A A23C U57A,≤ 0.026
19,G6U A30U C64A G66C,≤ 0.026
20,G6A G19A C27A,≤ 0.026
21,C5U G15A C29U,≤ 0.026
22,G6C A30U C81G,≤ 0.026
23,G6A A9G U63G C79U,≤ 0.026
24,G7A A13G U17A U57G C72A,≤ 0.026

row,Variant,nonsense suppression
1,C5U G65A,≤ 0.026
2,C5U G84C,≤ 0.026
3,G6U A9G,≤ 0.026
4,G6U A9U,0.0343
5,G6C U58G G65C G66A,≤ 0.026
6,G6C A9C C11A A14G U22G G32U G84A,≤ 0.026
7,G6C A13G C77G,≤ 0.026
8,G6U U70G A89U,≤ 0.026
9,G6C U76A,≤ 0.026
10,G6C U76C,≤ 0.026
11,G6A C34G,≤ 0.026
12,G6C C77G G86C,≤ 0.026
13,C5U U71G G78C,≤ 0.026
14,G6C U35G G66C,≤ 0.026
15,G6C G88U,≤ 0.026
16,G6C C34G,≤ 0.026
17,G6C A87C,≤ 0.026
18,C5U U55A A62G G66C C77G,≤ 0.026
19,G6A C29A,≤ 0.026
20,G6A A13U C56G C79U C82A,≤ 0.026
21,G6U G18U G59A A62C G86A,≤ 0.026
22,C5U U58A G59A U63A G69C U70G,≤ 0.026
23,G6C U20G U55G C68U G73C C80A C81U A87C,≤ 0.026
24,G6C A13C U17C G73C C83U,≤ 0.026

row,Variant,nonsense suppression
1,G7A A13G U63C U70C C81A C83U,≤ 0.026
2,G6U U58G U70G,≤ 0.026
3,G6C C11U U55G,≤ 0.026
4,C5U G59U,≤ 0.026
5,C5U G59C,≤ 0.026
6,G6A U58A G66C G73A,≤ 0.026
7,G6A C11U G66A C81U,≤ 0.026
8,G6U G32C G86A,≤ 0.026
9,C5U G65C G88U,≤ 0.026
10,C5U G10A G73U,≤ 0.026
11,G6C U57C G85A,≤ 0.026
12,G6A U55G,≤ 0.026
13,G6C C56A,≤ 0.026
14,G6C C56G,≤ 0.026
15,C5U U16A C81G,≤ 0.026
16,G6A C68U G73C,≤ 0.026
17,G6U G7U U8A G15C A24C U57G,≤ 0.026
18,G6U U70G G73U C82U,≤ 0.026
19,G6U C12A,≤ 0.026
20,G6C A14U G28U,≤ 0.026
21,G6A A87C,≤ 0.026
22,C5U U8A A9G C34A,≤ 0.026
23,G6A U57C U58C,≤ 0.026
24,G6C C80G G88C,≤ 0.026

row,Variant,nonsense suppression
1,G6C A9C C11U C34U,≤ 0.026
2,G6U G19C A54U G65A A74G C75U G78A,≤ 0.026
3,G6U A24C,≤ 0.026
4,G6A C79U G88C,≤ 0.026
5,G6C C11A A23G G25U C34U U55A,≤ 0.026
6,C5U G28A U55C C75G,≤ 0.026
7,G6A G7U U21A A31C A89G,≤ 0.026
8,G6U A9G G10C U58G A89U,≤ 0.026
9,G6U C12A U16C,≤ 0.026
10,G6C G67U,≤ 0.026
11,G6U A14C C68G C81G,≤ 0.026
12,G6C C11A C75G,≤ 0.026
13,G6U U22C C56G,≤ 0.026
14,G6A G25C C29G G78C,≤ 0.026
15,G6A A14C G26U,≤ 0.026
16,G6U A33G G86C,≤ 0.026
17,G6U A31G,≤ 0.026
18,G6U A31U,≤ 0.026
19,G6C U16A C56G U57C U58C U71C,≤ 0.026
20,G6U U57G A89U,≤ 0.026
21,C5U U76A C79A,≤ 0.026
22,C5U G15C A54G,≤ 0.026
23,G6A A24C A31G C64U,≤ 0.026
